Structures are written as SMILES.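 Results reflect a 48-hour exposure of cells in 96-well plates to compound at five concentrations. At the GI50, growth is halved.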 Activity calls are given as the source filed them. Rule as the data show it: active = GI50 up to about 1.1 µM and inactive = higher.

From ChEMBL document CHEMBL1201862, “PubChem BioAssay data set” (2004) come the findings set out here.

For the assay, the system named is NCI-H322M. The assay is described as follows: NCI tumour cell line growth inhibition, 48 h.
Take `O=C1c2ccccc2C2=Nc3ccncc3CN12`: the GI50 is inactive: > 100 µM.

In the case of `CCN(CC)Cc1cc(Nc2c3ccccc3nc3c4ccccc4n(C)c23)ccc1O`, the GI50 is inactive: 11.4 µM.

`CC(=O)n1c(COS(C)(=O)=O)nc2ccccc21`: the GI50 was inactive: > 100 µM.

As for `Cc1nc([N+](=O)[O-])cn1-c1nc2ccccn2c1[N+](=O)[O-]`, the GI50 is inactive: 64.9 µM.

On to `CCCC1c2c(ccc3ccccc23)Oc2ccc3ccccc3c21`, for which the GI50 is inactive: > 100 µM.

As for `Clc1ccc(-c2c(C3=NCCCN3)nnn2-c2ccc(Cl)cc2)cc1`, the GI50 was inactive: 37.7 µM.

Consider `CCCCC(C)C(OC(=O)CC(CC(=O)O)C(=O)O)C(CC(C)CC(O)CCCCC(O)CC(O)C(C)N)OC(=O)CC(CC(=O)O)C(=O)O` (centres undefined), for which the GI50 is inactive: > 100 µM.

For the compound `CC(C)OC(=O)c1ccc(NCc2cc(O)ccc2O)cc1`, the GI50 is inactive: 9.35 µM.

Turning to `CC(O)CCC(=O)c1ccoc1` (centres undefined), the GI50 was inactive: 8040 µM.

With `CCN1CC2=C(NC(=S)NC2c2cc(OC)c(OC)c(OC)c2)/C(=C/c2cc(OC)c(OC)c(OC)c2)C1` (centres undefined), the GI50 was inactive: 27.2 µM.

Regarding `COC(=O)C1=C(C)NC(=S)NC1c1ccc(N(CCCl)CCCl)cc1Cl` (centres undefined), the GI50 was inactive: 34.5 µM.

With `CN(C)/N=N/c1c[nH]nc1C(N)=O`, the GI50 is inactive: > 100 µM.

As to `O=C(COc1ccccc1Cl)N1N=C(c2ccccc2)CC1(O)c1ccccc1` (centres undefined), the GI50 is inactive: 18.8 µM.

For the compound `NC(CCC(=O)NC(CSC(=O)N(O)c1ccccc1)C(=O)NCC(=O)O)C(=O)O` (centres undefined), the GI50 was inactive: > 1000 µM.

In the case of `CC(=O)N[C@@H](Cc1ccc(O)cn1)C(=O)NCc1ccc2c(c1)OCO2`, the GI50 is inactive: > 100 µM.

`NC1=NN(c2ccccc2)C(=O)C1C(=O)C(=O)Nc1nccs1` (centres undefined): the GI50 was inactive: > 100 µM.

Consider `O=C(OCc1ccccc1CN1CCOCC1)c1cccc(Br)c1`, for which the GI50 was inactive: 56.2 µM.

With `Cc1ccc(/C=N/NC2=NCCN2)s1`, the GI50 is inactive: > 100 µM.

For the compound `Nc1ccc2c(SCc3ccc([N+](=O)[O-])cc3)c3ccccc3nc2c1`, the GI50 is inactive: 26.2 µM.

As to `C/C(=C\CNc1ncnc2c1ncn2CCC#N)CO`, the GI50 is inactive: > 100 µM.

Turning to `O=c1nc(N2CCCCC2)sc2[nH]c3ccccc3c12`, the GI50 is inactive: > 100 µM.

For the compound `O=C(O)CN1CCN2CCOCCN(CC1)CCN(CC(=O)O)CC2`, the GI50 is inactive: > 100 µM.

With `CO[C@]12C[C@H](CNC(=O)c3cc(Br)c(Br)[nH]3)O[C@H]1NC(=O)N2`, the GI50 was inactive: > 100 µM.

`N#C/C(C(=O)Nc1ccc(Cl)cc1)=C(/N)N1CCCC1`: the GI50 was inactive: > 100 µM.

For the compound `N#CC1=C(c2ccccc2)C(O)(c2ccccc2)NC1=O` (centres undefined), the GI50 is inactive: > 100 µM.

In the case of `CC(C)(C)c1ccc(O)c(C(c2ccc([N+](=O)[O-])cc2)c2cc(C(C)(C)C)ccc2O)c1`, the GI50 is inactive: 3.05 µM.

Take `CCOC(=O)Cc1c(C)c2cc(C(=O)c3ccccc3)c(O)cc2oc1=O`: the GI50 was inactive: 42.3 µM.

For `CC(C)(C)OC(=O)Cn1ncn(NC(=O)Cc2ccccc2)c1=O`, the GI50 is inactive: > 10 µM.

In the case of `CC1CC(NN)=Nc2ccccc2N1` (centres undefined), the GI50 is inactive: > 100 µM.

For the compound `C=C1C(=O)O[C@H]2[C@H]([C@H](C)CCCC(C)=O)O[C@H]([C@@]3(C)CCC(=O)O3)C[C@@H]12`, the GI50 was inactive: 57.7 µM.

`COc1cc2c(cc1O)C(Cc1ccc(OCc3ccccc3)c(OCc3ccccc3)c1)N(C(=O)NCCc1ccccc1)CC2` (centres undefined): the GI50 was inactive: > 100 µM.

On to `CC(C)(C)c1cc(/C=C(\C#N)C2=NCCO2)cc(C(C)(C)C)c1O`, for which the GI50 was inactive: 2.81 µM.

As for `O=C1NCCS(=O)(=O)N[C@@H](CC2=CC=CCC2)C(=O)N2CCCC12` (some centres undefined), the GI50 is inactive: > 100 µM.

In the case of `COc1ccc2[nH]c3c(C)c4cnccc4c(C)c3c2c1`, the GI50 is inactive: 3.56 µM.

On to `C=CCOc1ccc(C2(c3ccc(OCC=C)cc3)C(=O)Nc3ccccc32)cc1`, for which the GI50 is inactive: > 10 µM.

As to `CCOC(=O)C12OC(OCC)(CC1(OCC)OCC)C1(CC1)C2=O` (centres undefined), the GI50 is inactive: > 100 µM.

In the case of `CCOC(=O)C1=C(O)C(=O)c2ccsc2C1=O`, the GI50 is inactive: > 100 µM.

In the case of `COC(=O)[C@@H]1C[C@H]2OC(=O)CC[C@]2(C)O[C@H]1[C@H]1O[C@@](C)(O)CCC[C@H]1C`, the GI50 was inactive: > 50 µM.

In the case of `C=CCc1c(Cl)nc(Cl)nc1Cl`, the GI50 was active: 0.476 µM.

For `Cc1cc2c(c(C(=O)NCC(=O)N[C@@H](C)C(=O)OCc3ccccc3)c1)Oc1c(cc(C)cc1C(=O)NCC(=O)N[C@@H](C)C(=O)OCc1ccccc1)S2`, the GI50 was inactive: > 100 µM.

As to `CCCCC(=O)NC1(c2cc3ccccc3s2)CCCCC1`, the GI50 is inactive: > 100 µM.

As to `Cc1ccc(C(=O)c2nnc(C(=O)c3ccc(C)cc3)nn2)cc1`, the GI50 was inactive: 37.8 µM.

For the compound `NC(=O)N/N=C(\CCC(=O)N(Cc1ccccc1)Cc1ccccc1)CC(=O)c1ccc(F)cc1`, the GI50 is inactive: > 100 µM.

`Cc1cc(=O)cc2sc3cc(Cl)ccc3nc1-2`: the GI50 is inactive: 6.32 µM.

For `CC1=C(C(=O)NCC(C)O)CC(C(=O)NCC(C)O)=C(C)N1` (centres undefined), the GI50 is inactive: > 100 µM.

In the case of `CC1=NN(C(=O)Cc2ccccc2)C(=O)/C1=C\c1ccco1`, the GI50 is inactive: > 100 µM.

Take `CC(=O)C1Cn2c(=O)c3cc4ccccc4cc3c(=O)n2C=C1C` (centres undefined): the GI50 was inactive: > 100 µM.

Regarding `Cc1ccc(S(=O)(=O)n2c(-c3ccccc3)c(-c3ccccc3)c3ccccc32)cc1`, the GI50 is inactive: > 100 µM.

Turning to `O=c1oc2ccccc2n1P(=O)(Oc1ccc(Cl)cc1)n1c(=O)oc2ccccc21`, the GI50 is inactive: > 100 µM.

On to `CC(=O)OC1(C#N)CC2OC1C1N=NN(C(=O)OC(C)(C)C)C21` (centres undefined), for which the GI50 is inactive: > 100 µM.

Turning to `O=[N+]([O-])c1cc(C(F)(F)F)cc([N+](=O)[O-])c1CCl`, the GI50 was inactive: 5.51 µM.

As to `O=C1C[C@H]2[C@H](c3ccc(Br)cc3)[C@H]3C(=O)c4ccccc4NC(=O)[C@@H]3[C@@]2(O)c2ccccc2N1`, the GI50 is inactive: 17 µM.

`Cc1cc(C)c2[s+]snc2c1`: the GI50 is inactive: > 100 µM.

With `Cc1ccc2nc3c(Cl)cc(=O)cc-3sc2c1`, the GI50 was inactive: 31.8 µM.

On to `c1ccc(C2=C(c3ccccc3)P(c3ccccc3)C2)cc1` (centres undefined), for which the GI50 was inactive: > 100 µM.

In the case of `CCCCCCC1CCC2CCCC(C)N12` (centres undefined), the GI50 is inactive: > 100 µM.

Consider `N=c1c2ccccc2sc2nc3ccccc3n12`, for which the GI50 is inactive: > 100 µM.

With `CN(/N=C/c1ccccn1)C1=NCCCCN1`, the GI50 is inactive: > 100 µM.

Regarding `C(=N\c1ccc2c(c1)Cc1ccccc1-2)/c1ccccn1`, the GI50 was inactive: > 100 µM.

Take `COc1cc2c(cc1OC)C13CCN4CC5=CCOC6CC(=O)N2C1C6C5CC43O` (centres undefined): the GI50 was inactive: > 100 µM.

Regarding `Cc1ccc(S(=O)(=O)NC(=O)NC(CCC(N)=O)C(=O)O)cc1` (centres undefined), the GI50 is inactive: > 100 µM.

As for `Cc1nn(-c2ccccc2)c2c1C(c1ccc(Cl)cc1)NC(=S)N2` (centres undefined), the GI50 was inactive: 28.7 µM.

Regarding `c1ccc(C2=Nc3nc4ccccc4n3C(c3ccccc3)C2)cc1` (centres undefined), the GI50 was inactive: > 100 µM.

Regarding `O=C(O)c1c[nH]cc1C(=O)O`, the GI50 was inactive: > 100 µM.

For `CCOC(=O)c1nnsc1N/N=C\c1ccc([N+](=O)[O-])cc1`, the GI50 is inactive: > 100 µM.

As to `CC(C)C(OC(=O)c1ccc(NCC2=CC(=O)C=CC2=O)cc1)C(C)C`, the GI50 is inactive: 22.1 µM.

On to `N=C(N)Nc1ccc(CC(N)C(=O)O)cc1` (centres undefined), for which the GI50 was inactive: > 12.5 µM.

Turning to `Cc1ccc(C(=O)/C=C/c2ccccc2Cl)cc1`, the GI50 is inactive: 27 µM.

On to `Oc1c2cc(Cl)cc1COCc1cc(Cl)cc(c1O)COCc1cc(Cl)cc(c1O)COC2`, for which the GI50 is inactive: > 100 µM.

`COc1cc2oc(=O)cc(C)c2c(OC)c1O`: the GI50 was inactive: > 100 µM.

For the compound `C=CC(COC(=O)C(C)(C)OC(C)=O)c1ccc(OC(=O)C(C)C)c(OC)c1` (centres undefined), the GI50 was inactive: 17.2 µM.

As for `Cn1c2ccccc2c(=O)c2c([N+](=O)[O-])ccc(NCCN)c21`, the GI50 is inactive: 10.5 µM.

In the case of `O=C(O)C1=C(C(=O)O)N(c2ccncc2)C(c2ccco2)=CC1c1ccccc1[N+](=O)[O-]` (centres undefined), the GI50 is inactive: 16.6 µM.

For the compound `CC(O)CCNC(=O)Nc1c(C(F)(F)F)cc(-c2ccccc2)[nH]c1=O` (centres undefined), the GI50 was inactive: > 100 µM.

With `Oc1c(/N=N/c2ccccc2)c2ccccc2c2ccc3ccccc3c12`, the GI50 is inactive: > 100 µM.

For the compound `CC(C)(C)c1ccc(-c2nnc(-c3cc(C#N)cc(-c4nnc(-c5ccc(C(C)(C)C)cc5)o4)c3)o2)cc1`, the GI50 was inactive: > 100 µM.

Regarding `O=C1O/C(=C/c2ccccc2)C(c2ccccc2)=C1O`, the GI50 was inactive: 32.7 µM.

`COc1cc(N(CCC#N)CCC#N)ccc1/C=C1\SC(=S)NC1=O`: the GI50 is inactive: > 100 µM.

As for `N=C(N)N/N=C/c1c(-c2cc([N+](=O)[O-])c(Cl)cc2Cl)nc2n1CCS2`, the GI50 was inactive: 16.6 µM.

For the compound `C[C@H]1C(OCCOC2O[C@@H]3O[C@@]4(C)CC[C@H]5[C@H](C)CCC([C@H]2C)[C@@]35O4)O[C@@H]2O[C@@]3(C)CC[C@H]4[C@H](C)CCC1[C@@]24O3` (some centres undefined), the GI50 is inactive: 54 µM.

In the case of `CC12CC[C@@H](C(C)(C)O)C1[C@@H](O)CC1(C)C2CCC2[C@@]3(C)CC[C@H](O)C(C)(C)C3C(O)C[C@]21C` (some centres undefined), the GI50 was inactive: 17.3 µM.

As for `O=C1Cc2ccccc2N1c1c(Cl)cccc1Cl`, the GI50 is inactive: > 100 µM.

As for `NS(=O)(=O)c1ccc(/N=N/c2cnc(O)c(O)c2)cc1`, the GI50 was inactive: 45.4 µM.

Regarding `NCCNCCNc1ccc(NCCNCCN)c2c1C(=O)c1c(O)ccc(O)c1C2=O`, the GI50 was inactive: > 100 µM.
